Here are results for one molecule from patent publication CN114605536A.

The experiment concerns the target 天然TSLP. In words: cell-based or functional assay.

B1: QX008N (HZD8G2-57) (antibody, part only; not given: Light chain, part only)
heavy: EVQLVESGGGLVQPGGSLRLSCAASGFSLSSYYMSWVRQAPGKGLEWVGFISYGGSAYHATWAQGRFTISKDNSKNTLYLQMNSLRAEDTAVYYCAREFRSMTYGAEWGIWGQGTLVTVSS[human IgG1 constant region not spelt out]
Take B1: the 抑制天然TSLP诱导的SW756-STAT5-Luciferase报告基因细胞STAT5磷酸化活性的IC50 came to 0.462 ng/mL.
